Assay results from the supplement of paper PMC12217912.
The other results are listed elsewhere or left out. The full chains were built here from the parent and the listed change. Inactive controls read about 0.05.

B1: TEV protease; numbered along this chain (parent)
chain: MGESLFKGPRDYNPISSSICHLTNESDGHTTSLYGIGFGPFIITNKHLFRRNNGTLVVQSLHGVFKVKDTTTLQQHLVDGRDMIIIRMPKDFPPFPQKLKFREPQREERICLVTTNFQTKSMSSMVSDTSCTFPSGDGIFWKHWIQTKDGQCGSPLVSTRDGFIVGIHSASNFTNTNNYFTSVPKNFMELLTNQEAQQWVSGWRLNADSVLWGGHKVFMVKPEEPFQPVKEATQL

Variants of: B1
Assay: raw area under fraction-flipped curve 0-4 h after induction (AUC4h, not background-subtracted), DNA-recorder readout of cleavage of the substrate (dimensionless); higher = more cleavage of the substrate by the protease variant
Conditions: temperature: 34 °C; time window: 0-4 h after rhamnose induction
Experimental: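 In vivo DNA recorder in E. coli TOP10(DE3) ΔrhaA at 34 °C. Each TEVp single-site mutant (parent TEVp 0) is paired with a single-site variant of the 7-mer TEVs (canonical ENLYFQ|S). The substrate sits between flexible linkers in a Bxb1-sfGFP-TEVs-SsrA fusion, so cleavage stabilises Bxb1 and speeds flipping of a recombination array, read by NGS. The value is the raw area under the fraction-flipped curve over 0-4 h after rhamnose induction (AUC4h), with ≥20 reads per time point. It is not background-subtracted; inactive controls average about 0.047.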
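Note: Bxb1 expression induced with 0.2% (w/v) L-rhamnose at OD600 near 0.5, cultures sampled hourly, flipped fraction per protease–substrate barcode pair counted by paired-end Illumina sequencing.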

| Variant | area with substrate ENLYFAS | area with substrate ENLYFCS | area with substrate ENLYFDS | area with substrate ENLYFES | area with substrate ENLYFFS | area with substrate ENLYFGS | area with substrate ENLYFHS | area with substrate ENLYFIS | area with substrate ENLYFKS | area with substrate ENLYFLS | area with substrate ENLYFMS | area with substrate ENLYFNS | area with substrate ENLYFPS | area with substrate ENLYFRS | area with substrate ENLYFSS | area with substrate ENLYFTS | area with substrate ENLYFVS | area with substrate ENLYFWS | area with substrate ENLYFYS |
| --- | --- | --- | --- | --- | --- | --- | --- | --- | --- | --- | --- | --- | --- | --- | --- | --- | --- | --- | --- |
| T23R | 0.0645 | 0.0541 | 0.079 | 0.0658 | 0.0655 | 0.0794 | 0.0668 | 0.0398 | 0.0587 | 0.0511 | 0.0618 | 0.0511 | 0.0633 | 0.0645 | 0.0526 | 0.0589 | 0.0659 | 0.0568 | 0.0563 |
| T23S | 0.0482 | 0.0664 | 0.0556 | 0.0625 | 0.0789 | 0.0394 | 0.0352 | 0.0552 | 0.0553 | 0.0533 | 0.0741 | 0.0726 | 0.0584 |  | 0.0786 | 0.0575 | 0.0628 |  | 0.0642 |
| E25P | 0.0585 | 0.0454 | 0.0548 | 0.0526 | 0.0557 |  | 0.0657 | 0.0594 | 0.0552 |  |  | 0.0607 | 0.0514 | 0.0553 |  | 0.0521 | 0.0543 |  | 0.0549 |
| S26C | 0.0487 | 0.06 | 0.0686 | 0.0629 | 0.0671 |  | 0.0671 | 0.0525 | 0.0603 | 0.0962 | 0.0612 | 0.0572 | 0.0672 | 0.0627 | 0.0523 | 0.0619 | 0.0551 | 0.0559 | 0.0575 |
| S26F | 0.0584 | 0.0593 | 0.0557 | 0.0528 | 0.0723 |  | 0.0637 | 0.0597 | 0.0603 | 0.0447 | 0.0683 |  | 0.0584 | 0.0541 | 0.0557 | 0.0582 | 0.0498 | 0.0585 | 0.0679 |
| D27A | 0.0767 | 0.0664 |  | 0.061 | 0.058 | 0.0629 | 0.0541 | 0.0599 | 0.0523 |  | 0.0648 | 0.0525 | 0.0504 | 0.0619 | 0.059 | 0.0487 | 0.0621 | 0.0599 | 0.0594 |
| D27Q | 0.0647 | 0.0663 |  |  | 0.0613 | 0.0671 |  | 0.0534 | 0.0523 |  | 0.0695 | 0.0641 | 0.0493 | 0.044 |  | 0.0529 | 0.054 | 0.042 | 0.0506 |
| G28C | 0.0362 | 0.0618 | 0.0503 | 0.0597 | 0.0649 |  |  | 0.0546 | 0.0545 | 0.0602 | 0.0538 | 0.0528 | 0.0453 | 0.0642 | 0.0627 | 0.0565 | 0.0509 | 0.052 |  |
| H29A | 0.0559 | 0.0521 |  | 0.066 | 0.0687 |  | 0.0534 | 0.0655 | 0.0625 | 0.0819 | 0.0834 | 0.0675 | 0.0575 | 0.0573 | 0.0818 | 0.0636 | 0.0444 | 0.0625 | 0.0519 |
| H29D | 0.0646 | 0.0548 | 0.0587 | 0.0664 | 0.0767 | 0.0645 | 0.0626 | 0.0592 |  |  | 0.0515 | 0.0587 | 0.0598 |  | 0.0629 | 0.0561 | 0.0615 | 0.0535 |  |
